Results: PubChem BioAssay AID1030 (National Center for Advancing Translational Sciences (NCATS), 2008)
Hit rate of the full screen: of about 220,000 compounds, about 16,000 (7.3%) were called active. The inconclusive results got no clear call from the source; some entries with a clear call stand among them for comparison. Calls follow the shape of the dose curve; as a rule, active = well fitted inhibition curve with a large enough effect (not every such curve was filed as active); inconclusive = small, poorly fitted or top-dose-only effect, or another doubt; inactive = no such curve, though single readings can be large or run the other way. Where the call is inconclusive, the potency comes from a doubtful curve fit.

Target: Aldehyde dehydrogenase 1A1 (Homo sapiens) (UniProt P00352)
Chain of UniProt P00352 (P00352 whole entry, looked up): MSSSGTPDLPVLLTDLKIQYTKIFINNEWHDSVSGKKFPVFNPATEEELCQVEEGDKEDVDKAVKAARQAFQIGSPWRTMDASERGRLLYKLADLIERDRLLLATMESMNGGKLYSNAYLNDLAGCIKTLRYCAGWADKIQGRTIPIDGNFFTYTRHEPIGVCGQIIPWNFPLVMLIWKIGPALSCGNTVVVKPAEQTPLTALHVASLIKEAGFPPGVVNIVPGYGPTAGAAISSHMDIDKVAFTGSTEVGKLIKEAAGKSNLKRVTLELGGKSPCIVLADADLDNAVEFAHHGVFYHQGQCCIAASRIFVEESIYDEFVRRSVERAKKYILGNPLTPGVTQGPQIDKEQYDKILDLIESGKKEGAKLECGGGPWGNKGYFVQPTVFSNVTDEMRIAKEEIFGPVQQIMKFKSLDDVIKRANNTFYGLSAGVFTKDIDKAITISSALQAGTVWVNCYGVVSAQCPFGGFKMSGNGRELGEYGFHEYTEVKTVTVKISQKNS
Assay: qHTS Assay for Inhibitors of Aldehyde Dehydrogenase 1 (ALDH1A1)
Details: Purified ALDH1A1, NADH fluorescence, propionaldehyde substrate; series mostly up to 75.3 µM
Potency is read from the fitted curve at half-maximal effect; tags tell the direction and shape of the fitted curve.

Potency, inactive:
Cc1nn(-c2ccccc2)c(C)c1C(=O)OCC(=O)Nc1ccc2c(c1)OCO2
COCCn1c(=O)cnc2cnc(N(C)C)nc21
COc1ccc(O)c(CNc2ccccc2F)c1
BrC(Br)C(Br)Br
CC(C)(C)NC(=O)c1cccc(NC(=O)c2ccco2)c1
Cc1ccc(-c2nnc(SCC(=O)N3c4ccccc4NC(=O)C3(C)C)n2N)cc1
CC(=O)NCCNC(=O)c1ccc(CSc2ccc(Cl)cc2)cc1
CC(C)NC(=O)CN1CCC(O)(c2ccccc2)CC1
O=c1[nH][nH]cc1C=Nc1cc(Cl)ccc1O
CC(C)CCn1nnnc1CN1CCN(c2ccccc2)CC1
O=C(CCCN1CCN(c2ccccn2)CC1)c1ccc(F)cc1
CCCCOc1ccc(-n2nc(C)cc2C)nn1
CC1CCCCC12NC(=O)N(CC(=O)Nc1ccc(N3CCOCC3)cc1)C2=O (configuration not stated)
NS(=O)(=O)c1ccc(Cc2ncc(C(F)(F)F)cc2Cl)s1
C[C@@H]1CNCCN1S(=O)(=O)c1cccc2cnccc12
O=C(Nc1ccncc1)c1cc([N+](=O)[O-])ccc1Cl
Cc1ccc(S(=O)(=O)CC(=O)N(C)C)cc1
CCCCN(C)CCC(=O)Nc1ccc2c(c1)CCC2
COC(=O)CN1C(=O)C2(OCCCO2)c2cc(Br)ccc21
O=C(O)c1nn(-c2ccccc2)ccc1=O
CC(C)CC(NC(=O)COc1ccccc1)C(=O)O (configuration not stated)
O=C(CSc1ccc2c(c1)OCCO2)NCc1ccccc1
CC1CCC(N2CC(=O)N(Cc3ccc4c(c3)OCO4)C(c3ccc(F)cc3)C2=O)CC1 (configuration not stated)
COc1ccc(NC(=O)Cn2nc(Cc3cccnc3)c3ccccc3c2=O)cc1OC

Potency, inconclusive:
Cc1noc(C)c1S(=O)(=O)N1CCC(C(=O)N2CCN(C3CCCC3)CC2)CC1 25.1 µM [inhibitor, single point]
COc1cc2c(cc1NC(=O)C(C)OC(=O)/C=C/c1ccc(OC(F)F)cc1)oc1ccccc12 (configuration not stated) 22.4 µM [inhibitor, partial curve]
O=C(O)c1cc(-c2cccs2)nc2cc3c(cc12)OCCO3 28.2 µM [inhibitor, partial curve]
COC(=O)NCC(c1cccnc1)N1CCOCC1 (configuration not stated) 39.8 µM [inhibitor, single point]
CCC1(C)N=c2c(c(=O)n(C)c(=O)n2C)=NO1 (configuration not stated) 3.98 µM [inhibitor, single point]
O=C(c1ccc(NS(=O)(=O)c2ccccc2)cc1)N1CCN(Cc2ccc3c(c2)OCO3)CC1 39.8 µM [inhibitor, single point]
Cc1cnc(CNc2cc(-c3ccc4c(c3)OCO4)ncn2)cn1 31.6 µM [inhibitor, single point]
O=C(Nc1cc(Sc2ccccn2)cc([N+](=O)[O-])c1)c1cccc(F)c1 8.91 µM [inhibitor, partial curve]
CC1CCN(c2ccc(C(=O)NCCc3ccccc3)cn2)CC1 39.8 µM [inhibitor, single point]
COc1ccc(-c2nnc(SCc3ccccn3)n2C)cc1 37.7 µM [inhibitor, single point]
CCc1cc(C(c2ccc(F)cc2)N2CCOCC2)c(NC(=O)c2ccccc2)s1 (configuration not stated) 35.5 µM [inhibitor, partial curve]
COc1ccc(CCn2c(=N)c(C(=O)N3CCN(C)CC3)cc3c(=O)n4ccccc4nc32)cc1 28.2 µM [inhibitor, partial curve]
COc1ccc(C(=O)NCC(=O)OCc2ccc(Br)cc2)cc1 3.16 µM [inhibitor, full curve]
CCOc1ccc(NC(=O)CCCCn2c(=O)[nH]c3ccsc3c2=O)cc1 44.7 µM [inhibitor, single point]
COc1cc(-c2nnc(SCc3ccccc3Cl)o2)cc(OC)c1OC 28.2 µM [inhibitor, single point]
Cc1ccc(S(=O)(=O)N2CCCCC2c2cccnc2)c(C)c1C (configuration not stated) 15.8 µM [inhibitor, partial curve]
O=S(=O)(Nc1ccc2c(c1)OCCO2)c1ccc2oc3ccccc3c2c1 39.8 µM [inhibitor, partial curve]
CCOC(=O)N1CCN(C(=O)C(C)SCc2ccccc2)CC1 (configuration not stated) 39.8 µM [inhibitor, single point]
O=C(NC1CC1)c1ccc(CSCc2cccc(F)c2)o1 39.8 µM [inhibitor, single point]
COc1cccc(C(=O)Nc2ccc(NC(=O)c3ccco3)c(Cl)c2)c1 39.8 µM [inhibitor, partial curve]
O=C(NNC(=O)c1cc(-c2ccco2)nc2ccccc12)c1ccccc1 28.2 µM [inhibitor, partial curve]
O=C(Nc1ccccc1-c1nnc(SCc2ccc(Cl)cc2)o1)c1ccccc1 39.8 µM [inhibitor, single point]
O=C(NCCCN1CCOCC1)c1ccccc1NS(=O)(=O)c1ccc(F)cc1 39.8 µM [inhibitor, single point]
CN(C)c1ccnc(NCc2ccccc2)c1C#N 39.8 µM [inhibitor, single point]
COc1ccc(NS(=O)(=O)c2cc(NC(=O)c3cccs3)ccc2N2CCCC2)cc1 44.7 µM [inhibitor, single point]
Cn1c(=O)n(C)c2cc([N+](=O)[O-])c(N3CCN(C(=O)c4ccccc4)CC3)cc21 11.2 µM [inhibitor, partial curve]
O=C(O)c1cc2ccccc2c(Cc2cc3ccccc3c(C(=O)O)c2O)c1O (tested in a mixture with another compound) 10 µM [inhibitor, partial curve]
COc1ccc(C(=O)C2CCN(C(=S)NCC3CCCO3)CC2)cc1 (configuration not stated) 22.4 µM [inhibitor, single point]
COc1ccc(/C=N/n2c(SC)nnc2-c2ccccc2)c(OC)c1OC 28.2 µM [inhibitor, single point]
Clc1cccc(CN2CCCCCCC2)c1Cl 39.8 µM [inhibitor, single point]
COc1ccc(-c2nc(N3CCC(C)CC3)[nH]c(=O)c2C#N)cc1 39.8 µM [inhibitor, single point]
COc1ccc2nc(NC(=O)c3ccc4ncsc4c3)sc2c1 28.2 µM [inhibitor, partial curve]
Brc1ccc(-c2csc3ncnc(-n4nnc5ccccc54)c23)cc1 37.7 µM [inhibitor, single point]
COc1ccc(NC(=O)n2nc(OC(=O)c3cccs3)cc2N)cc1 10 µM [inhibitor, partial curve]
COc1cc(CN(C2CCCCC2)S(=O)(=O)c2ccc(S(=O)(=O)N(C)C3CCCCC3)cc2)cc(OC)c1OC 2.51 µM [inhibitor, full curve]
CCOC(=O)c1ccc(NC(=O)CN2C(=O)CSC2=O)cc1 39.8 µM [inhibitor, single point]
CC1CCCN(Cc2nc3c(c(=O)n(C)c(=O)n3C)n2CCCc2ccccc2)C1 (configuration not stated) 25.1 µM [inhibitor, partial curve]
CCCCOC(=O)c1ccc(NC(=O)C(=O)NCc2ccncc2)cc1 31.6 µM [inhibitor, single point]
Cc1c(C(=O)NCc2ccccc2Cl)oc2c1C(=O)CCC2 25.1 µM [inhibitor, single point]
CSC(=NC#N)N1CCN(c2c(C)cccc2C)CC1 17.8 µM [inhibitor, partial curve]
CO/C([O-])=N/c1c[n+](-c2ccc(C)cc2)no1 39.8 µM [inhibitor, single point]
O=C(c1ccc(Cl)cc1)n1c(NCc2ccccc2)n[nH]c1=S 39.8 µM [inhibitor, single point]

Potency, active:
CN(C)C(=S)c1ccccc1 7.08 µM
CC(=O)Nc1cccc(-c2nnc(SCC(=O)n3c4c(c5ccccc53)CCCC4)n2C)c1 22.4 µM
O=C(CCNc1ccc(F)cc1)c1cccc([N+](=O)[O-])c1 0.224 µM
CCn1c(SCC(=O)Nc2ccccc2C)nc2nc3c(cc2c1=O)COC(C)(C)C3 14.1 µM
CC(=O)/C(CN1CCCCC1)=N\O 3.55 µM
O=S(=O)(CCSc1nc2ccccc2o1)c1nc2ccccc2s1 0.282 µM
CC(C)=NOc1cc(NC(=O)CCl)cc([N+](=O)[O-])c1 0.178 µM
CCCCC(=O)Nc1nc(C)c(-c2csc(Nc3cc(Cl)ccc3OC)n2)s1 10 µM
O=C(CSc1nc2ccc(NC(=O)CSc3nnnn3Cc3ccccc3)cc2s1)Nc1ccccc1 12.6 µM
CCCCOc1cccc(C(=O)NC(=S)Nc2cccc(C(F)(F)F)c2)c1 8.91 µM
CCn1c(SCC(=O)N2c3ccccc3Sc3ccccc32)nc2c1c(=O)n(C)c(=O)n2C 11.2 µM
